Results on 88 compounds are retold here after publication PMC4336329 (PLoS ONE, 2015).

Hit rate of the full screen: of about 310,000 compounds, about 14,000 (4.5%) showed an effect of 50% or more. The effect is printed as a negative number. The list shows a part of the results.
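Note: peak tail current of the secondary pulse compared with the same well before compound.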

In the assay the target is human ether-à-go-go-related gene (hERG) potassium channel (human, UniProt Q12809). Put plainly: primary screen, population patch clamp on CHO cells stably expressing hERG.
human ether-à-go-go-related gene (hERG) potassium channel, sequence (Q12809 whole entry, looked up): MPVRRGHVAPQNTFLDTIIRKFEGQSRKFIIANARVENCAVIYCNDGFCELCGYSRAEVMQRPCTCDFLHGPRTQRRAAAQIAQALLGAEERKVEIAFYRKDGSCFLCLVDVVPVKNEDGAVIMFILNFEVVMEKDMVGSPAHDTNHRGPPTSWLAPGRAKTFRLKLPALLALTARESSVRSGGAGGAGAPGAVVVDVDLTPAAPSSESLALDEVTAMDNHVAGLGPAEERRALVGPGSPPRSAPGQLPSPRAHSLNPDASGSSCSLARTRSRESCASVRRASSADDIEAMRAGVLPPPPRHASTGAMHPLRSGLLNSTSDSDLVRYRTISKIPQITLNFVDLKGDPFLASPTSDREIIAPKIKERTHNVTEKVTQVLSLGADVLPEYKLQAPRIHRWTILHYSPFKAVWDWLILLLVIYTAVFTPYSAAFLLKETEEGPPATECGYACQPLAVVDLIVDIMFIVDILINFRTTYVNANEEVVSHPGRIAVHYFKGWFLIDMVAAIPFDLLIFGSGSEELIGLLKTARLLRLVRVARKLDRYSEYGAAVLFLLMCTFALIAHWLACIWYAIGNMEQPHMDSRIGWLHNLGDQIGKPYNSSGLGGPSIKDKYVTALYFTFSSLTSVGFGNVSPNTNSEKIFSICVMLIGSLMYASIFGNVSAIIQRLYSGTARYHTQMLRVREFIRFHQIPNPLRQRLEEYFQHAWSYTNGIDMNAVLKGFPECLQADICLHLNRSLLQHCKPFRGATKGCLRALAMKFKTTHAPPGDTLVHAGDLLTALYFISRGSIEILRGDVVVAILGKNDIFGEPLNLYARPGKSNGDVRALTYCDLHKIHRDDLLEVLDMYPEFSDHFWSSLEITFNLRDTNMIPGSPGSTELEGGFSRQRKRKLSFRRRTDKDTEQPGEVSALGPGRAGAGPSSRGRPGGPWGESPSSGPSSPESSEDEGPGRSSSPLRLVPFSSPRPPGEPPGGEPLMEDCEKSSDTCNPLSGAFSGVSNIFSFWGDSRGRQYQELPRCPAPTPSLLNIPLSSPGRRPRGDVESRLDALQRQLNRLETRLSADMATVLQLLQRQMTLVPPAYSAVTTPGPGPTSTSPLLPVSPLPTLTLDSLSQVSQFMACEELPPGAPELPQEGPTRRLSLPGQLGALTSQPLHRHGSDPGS
With `CC(=O)c1cc(CN2CCCCC2)cc(OC(C)C)c1.Cl`, the “hERG current change (%, negative = inhibition) at 10uM” value amounted to 0.161%. To `O=C1CC(N(O)c2ccccc2)C(=O)N1c1ccc(Cl)c(Cl)c1` (stereo not shown) belongs 13.1%; to `O=C(CNC(=O)c1ccccc1)NCCc1nc2ccccc2[nH]1`, 3.07%.

With `O=C(O)c1ccccc1N=Nc1ccc(O)cc1`, the “hERG current change (%, negative = inhibition) at 10uM” value came out at 4.01%. To `O=C(CSc1nc(-c2ccccc2)cc(=O)[nH]1)N1CCOCC1` belongs 5.84%. To `CC(C)COc1ccc(C(=O)CCN2CCCCC2)cc1.Cl` belongs -41.4%; to `COc1ccc(C(=O)NCc2nnc(SCC(=O)N3CCCc4ccccc43)o2)cc1OC`, -1.22%. The result for `CCOC(=O)C1CCN(S(=O)(=O)c2c(C)[nH]c(C)c2C(=O)N2CCCC2)CC1` reads 8.25%; that for `CN1CCN(c2ccccc2NC(=O)c2cccs2)CC1`, -47.5%; that for `COC(=O)NNC(=O)C(c1ccccc1)c1ccccc1`, 12%. For `CCOC(=O)C1CCCN(C(=O)c2cnn3c(C(F)F)cc(-c4ccc(C)cc4)nc23)C1` (stereo not shown), the “hERG current change (%, negative = inhibition) at 10uM” value is listed as -38.4%. To `O=C(NCCCN1CCCC1=O)C1CCC(CNS(=O)(=O)c2ccc(Cl)cc2)CC1` (stereo not shown) belongs -0.675%; to `COc1ccc(Cl)cc1NC(=O)CN(C)C(=O)CN1C(=O)NC(C)(C)C1=O`, 18.2%. On to `Cc1ccc(N(CC(=O)N2CCOCC2)S(C)(=O)=O)cc1C`, for which the “hERG current change (%, negative = inhibition) at 10uM” value was -10.5%. To `NS(=O)(=O)c1ccc(CCN2C(=O)CCC2=O)cc1` belongs 19.6%; to `O=C(Cn1cnc2c(nnn2Cc2ccc(Cl)cc2)c1=O)N1CCN(c2ccccc2)CC1`, -40.4%; to `Cc1cc(/C=C(/C#N)c2cccc(Cl)c2)c(C)n1C`, -15.4%. The result for `O=C(CN1CCN(S(=O)(=O)c2ccc(F)cc2)CC1)Nc1cc(C(F)(F)F)ccc1Cl` reads -4.15%; that for `CN(C)CCN(C(=O)c1ccc(S(=O)(=O)N(C)CC2CCCO2)cc1)c1nc2cc3c(cc2s1)OCO3.Cl` (stereo not shown), -43.2%; that for `Cc1c(NC(=O)c2ccc(Cl)s2)c(=O)n(-c2ccccc2)n1C`, 3.58%.

On to `COc1ccc(NS(=O)(=O)c2cccc(C(=O)N/N=C/c3ccc4c(c3)OCCO4)c2)cc1`, for which the “hERG current change (%, negative = inhibition) at 10uM” value is listed as 8.67%.

With `CNC(=O)[C@H](C)[C@@H]1C[C@@]1(C)[C@@H](NC(=O)OCc1ccccc1)c1ccccc1`, the “hERG current change (%, negative = inhibition) at 10uM” value came out at 1.03%. The result for `Cc1ccccc1C(=O)Nc1ccnn1C1CCN(CCCc2ccccc2)CC1` reads -78.4%; that for `O=C(N/N=C/c1cccc(Oc2ccccc2)c1)c1cccc(Br)c1`, -8.64%; that for `COc1cc(C(C)=O)ccc1Oc1cnccn1`, 21.1%. To `CCN1CCN(C(=O)CN2C(=O)COc3ccc(S(=O)(=O)N4CCOCC4)cc32)CC1` belongs 6.02%; to `COc1cc2cc(Oc3ccc4ccc(=O)oc4c3)c(=O)oc2cc1OC(=O)/C=C/c1ccccc1`, -8.81%. Take `CCN1C(=O)[C@H]2[C@@H](c3ccc(-c4ccc5c(c4)OCO5)cc3)N3CCC[C@@]3(C(=O)OC)[C@H]2C1=O.O=C(O)C(F)(F)F`: the “hERG current change (%, negative = inhibition) at 10uM” value is -8.25%. To `COc1ccc(Cn2c(CCC(=O)O)nc3cccnc32)cc1` belongs 30.3%; to `CCCCOc1ccc(C2CCC(C(C)=O)C(C)C2)cc1` (stereo not shown), -6.68%.

As to `O=C(Nn1c(-c2ccc(F)cc2)nc2ccccc2c1=O)c1cccnc1`, the “hERG current change (%, negative = inhibition) at 10uM” value is 17.7%. On to `Cc1cc(Cl)ccc1NC(=O)CN1C(=O)NC2(CCCC2)C1=O`, for which the “hERG current change (%, negative = inhibition) at 10uM” value is 6.03%. Regarding `COC(=O)C1=C(c2ccc(F)cc2OCc2ccccc2)C[C@@H]2CC[C@H]1N2C(=O)NCc1ccc2c(c1)OCO2`, the “hERG current change (%, negative = inhibition) at 10uM” value was determined as 1.56%. Take `CCn1cc(C(=O)NCc2cccnc2)c2cc(OC)c(OC)cc2c1=O`: the “hERG current change (%, negative = inhibition) at 10uM” value stood at 1.88%. To `CNS(=O)(=O)c1cccc(C(=O)OCC(=O)c2ccc(S(=O)(=O)N3CCCCC3)cc2)c1` belongs 11.4%. To `O=C(Nc1cccc(F)c1)c1cccc2c1C(=O)N(C1CCCCC1)C2` belongs 12.2%; to `O=C1CCCN1CC(O)CS(=O)(=O)Cc1ccc(Cl)c(Cl)c1` (stereo not shown), 5.83%; to `CCOc1cc(C2C(C#N)=C(N)Oc3n[nH]c(-c4ccncc4)c32)cc([N+](=O)[O-])c1O` (stereo not shown), 22%.

Turning to `Cc1ccsc1C(=O)C1CCCN(Cc2cn(C)nc2C)C1` (stereo not shown), the “hERG current change (%, negative = inhibition) at 10uM” value is listed as -40.9%. The result for `COc1ccc(NS(=O)(=O)c2cccc(C(=O)NNC(=O)COc3ccccc3)c2)cc1` reads -6.93%; that for `CCC(Sc1nc(-c2ccccc2)c(C#N)c(=O)[nH]1)C(=O)Nc1nnc(C)s1` (stereo not shown), 1.73%. The result for `O=C(Nc1nccs1)c1ccc(Br)o1` reads -9.15%; that for `CCOC(CNC(=O)C(=O)Nc1cc2c3c(c1)CCN3C(=O)CC2)OCC`, -10.2%; that for `CCOc1ccc(-c2c(=O)n(OCc3ccccn3)c3ccccc3[n+]2[O-])cc1`, -3.78%. To `CCC(=O)N1CCN(c2cc3c(cc2F)c(=O)c(C(=O)O)cn3CC)CC1` belongs 19%; to `Cc1cc(OC(C)C(N)=O)nc(-c2ccccc2)n1` (stereo not shown), 15.6%.

With `CC(C)OCCCNC(=O)c1ccc2c(c1)ncn2C1CCCC1`, the “hERG current change (%, negative = inhibition) at 10uM” value is reported as 0.0341%. `O=S(=O)(NCc1ccccc1)NCc1ccccc1`: the “hERG current change (%, negative = inhibition) at 10uM” value is given as 24.6%. To `CC12CCC(C(=O)Nc3ccccc3Br)(C/C1=N\O)C2(C)C` (stereo not shown) belongs 4.44%; to `COC(=O)c1ccc(CSC(=N)N)o1`, 10.9%; to `Cc1cccc(N2C(=O)CSC2c2cccnc2)c1` (stereo not shown), 17%. The result for `COc1ccc(OC)c(NC(=O)CSC2=NCCS2)c1` reads -5.75%; that for `O=C(OC1CCOC1=O)c1ccc2ccccc2n1` (stereo not shown), 15.6%; that for `Cc1ccc2c(CN3CCOCC3)cc(=O)oc2c1`, -27.6%. The result for `COc1ccc(S(=O)(=O)N2CCN(C(=O)C3COc4ccccc4O3)CC2)cc1` (stereo not shown) reads -11.7%; that for `COc1ccc(N(CC(=O)Nc2ccc(C(N)=O)cc2)S(=O)(=O)c2ccc(C)c([N+](=O)[O-])c2)cc1`, 24%; that for `Cc1nn(C)cc1C=NCCOCc1ccccc1`, 8.51%. As to `COCC(=O)Nc1sc2c(c1C(=O)OC)CCCC2`, the “hERG current change (%, negative = inhibition) at 10uM” value is given as -11.7%.

Take `O=C1CC(N2CCN(c3ccccc3F)CC2)C(=O)N1c1ccc2c(c1)OCCO2` (stereo not shown): the “hERG current change (%, negative = inhibition) at 10uM” value is recorded as 19.9%. To `Cc1ccc(OCc2cc(C(=O)N3CC4C[C@@H]5CC3C[C@H](C4)C5)no2)cc1C` belongs 15.7%. To `Nc1ncnc2nc[nH]c12` belongs 17.2%. The result for `COc1ccc(NC(=O)CS(=O)(=O)c2ccccc2)cc1` reads 22.3%; that for `O/N=C/c1cccn1-c1ccc(O)cc1`, -15.8%; that for `CN(C1=NS(=O)(=O)c2ccccc21)c1ccc(OC(=O)c2ccccc2)cc1`, 18.1%. On to `Cc1cc(Cl)ccc1OCC(=O)N/N=C1\CCCc2ccccc21`, for which the “hERG current change (%, negative = inhibition) at 10uM” value was -0.309%.

Regarding `O=C(COc1ccccc1)N1CCN(c2nnc(-c3ccccc3)c3ccccc23)CC1`, the “hERG current change (%, negative = inhibition) at 10uM” value was -65.3%. To `CCCNC(=O)c1c(O)c2c([nH]c1=O)CCCC2` belongs 16.1%; to `CC(C)=CC(=O)OCC(=O)NC(=O)NC(C)(C)C`, 12.2%.

For the compound `CC1=Nn2c(nnc2-c2cc(C)[nH]n2)SC1`, the “hERG current change (%, negative = inhibition) at 10uM” value is -4.11%. Consider `O=C(Nc1ccc(F)cc1)NC1CCCCC1`, for which the “hERG current change (%, negative = inhibition) at 10uM” value is reported as 5.47%. To `O=C(Cc1ccc(F)cc1)N1CCN(c2ccc(F)cc2)CC1` belongs 0.483%; to `COCCCNC(=O)Cc1ccccc1OC`, 1.79%; to `NS(=O)(=O)c1ccc(CNC(=O)c2ccc(S(=O)(=O)NCc3ccco3)cc2)cc1`, 2.78%. Regarding `COc1ccc(C(C(=O)NC2CCCCC2)N(C(=O)Cc2c[nH]c3ccccc23)c2ccc(NC(C)=O)cc2)cc1OC` (stereo not shown), the “hERG current change (%, negative = inhibition) at 10uM” value is on record as -9.01%. The result for `C=C(C)CNC(=S)N/N=C1\CCCCc2ccccc21` reads -60.3%. To `CC(C)c1cccc(C2=CC(=O)C[C@H](c3ccc4c(c3)OCO4)C2)c1` belongs 9.93%.

Take `Cc1cccc(C(=O)NC(=S)Nc2c(C)n(C)n(-c3ccccc3)c2=O)c1`: the “hERG current change (%, negative = inhibition) at 10uM” value is 5.67%. The result for `CCCC(c1nnnn1Cc1ccc(F)cc1)N1CCN(C2CCCCC2)CC1.Cl` (stereo not shown) reads -62.4%. To `NS(=O)(=O)c1cc(C(=O)OCC(=O)Nc2ccc3[nH]c(=O)[nH]c3c2)ccc1Cl` belongs 6.67%; to `COc1ccc(-c2ccc(C#N)c(SCC(=O)Nc3sc4c(c3C#N)CCC4)n2)cc1OC`, 10.3%; to `CC(C)C(=O)N1CCN(c2nc(-c3ccccc3)c3c(c2C#N)CC(C)(C)OC3)CC1`, -49.4%. To `O=C(CSc1nnc(-c2ccc(O)cc2)o1)Nc1ccc2c(c1)OCCO2` belongs -13.8%; to `Cc1ccc(Nc2ncnc3sc(C)c(C)c23)cc1C`, 17.8%. Turning to `COc1ccccc1N1CCN(S(=O)(=O)c2cccc3nsnc23)CC1`, the “hERG current change (%, negative = inhibition) at 10uM” value is recorded as -23%.

Turning to `O=C(Cc1cccs1)Nc1cccnc1`, the “hERG current change (%, negative = inhibition) at 10uM” value was 4.77%. To `O=C(CCNc1cc(Cl)cc(Cl)c1)c1ccco1` belongs -4.77%; to `COc1ccc(NC(=O)COn2nnc3ccc(Cl)cc32)cc1OC`, -8.52%. To `Cc1ccc(NS(=O)(=O)c2ccc3c(c2)CC(=O)N3)cc1F` belongs -5.31%.
